Laboratory results reported in PubChem BioAssay AID624170 (National Center for Advancing Translational Sciences (NCATS), 2012).
Where “and” joins values, the source holds several entries; their conditions need not be identical. Equal values may be shown once. The whole screen tested about 410,000 compounds, of which about 850 (0.21%) were called active. The shares of active, inactive and inconclusive entries below differ from those in the screen. Calls come from the whole dose curve; as a rule, active = well fitted inhibition curve with a large enough effect; inconclusive = small, poorly fitted or top-dose-only effect, or another doubt; inactive = no such curve, though single readings can be large or run the other way. Potencies beside an inconclusive call are fits to weak or partial responses and may not hold up.

molecular target: Glutaminase kidney isoform, mitochondrial (Homo sapiens) (UniProt O94925); assay: qHTS for Inhibitors of Glutaminase (GLS); conditions: GLS enzymatic activity, qHTS titration; series mostly up to 45.5 µM
Text: Glutaminase (GLS) catalyzes the hydrolysis of glutamine into glutamate and ammonia. It plays a critical role in glutaminolysis, which is an important energy source for proliferating cells. It was shown that c-Myc, an oncogenic transcription factor known to regulate microRNAs and to stimulate cell proliferation, increases glutamine metabolism by stimulating the expression of GLS via direct suppression of miR23a and miR23b.
GLS is also thought to play a pathogenic role on HAD using a human HIV-1 infected macrophage system. […] GLS inhibition limits glutamate release and provides neuroprotection against HIV-1 infected macrophages.
The overall goal of this project is to identify small molecule inhibitors of GLS through quantitative high throughput screening (qHTS) of the MLSMR. A validated potent and selective inhibitor can be used as a tool molecule to further study the pharmacology of its target as well as explore its potential therapeutic application in cancer and inflammatory neurological disorders, such as HIV1-associated dementia (HAD) and multiple sclerosis.
NIH Chemical Genomics Center [NCGC]
NIH Molecular Libraries Probe Centers Network [MLPCN]
Assay Submitter (PI): Barbara S. Slusher, Johns Hopkins University
Three 3 uL of hKGA is dispensed into black well 1536-well plates in 45 mM KH2PO4 (pH 8.2), 0.02% Tween-20. Then 23 nL of compounds are added through pin tool transfer. To this, 1 uL of 1mM L-Glutamine and 1 uL of a solution of L-Glutamateoxidase, HRP, Amplex red are added. Plate is centrifuged for 25 sec before an initial fluorescence read is obtained on the ViewLux, after 30 min of RT incubation, the final read is taken on the ViewLux.
Potency is the fitted concentration of half-maximal effect; tags give direction and shape of the fitted curve.

UniProt O94925, sequence (O94925 whole entry, looked up, canonical isoform): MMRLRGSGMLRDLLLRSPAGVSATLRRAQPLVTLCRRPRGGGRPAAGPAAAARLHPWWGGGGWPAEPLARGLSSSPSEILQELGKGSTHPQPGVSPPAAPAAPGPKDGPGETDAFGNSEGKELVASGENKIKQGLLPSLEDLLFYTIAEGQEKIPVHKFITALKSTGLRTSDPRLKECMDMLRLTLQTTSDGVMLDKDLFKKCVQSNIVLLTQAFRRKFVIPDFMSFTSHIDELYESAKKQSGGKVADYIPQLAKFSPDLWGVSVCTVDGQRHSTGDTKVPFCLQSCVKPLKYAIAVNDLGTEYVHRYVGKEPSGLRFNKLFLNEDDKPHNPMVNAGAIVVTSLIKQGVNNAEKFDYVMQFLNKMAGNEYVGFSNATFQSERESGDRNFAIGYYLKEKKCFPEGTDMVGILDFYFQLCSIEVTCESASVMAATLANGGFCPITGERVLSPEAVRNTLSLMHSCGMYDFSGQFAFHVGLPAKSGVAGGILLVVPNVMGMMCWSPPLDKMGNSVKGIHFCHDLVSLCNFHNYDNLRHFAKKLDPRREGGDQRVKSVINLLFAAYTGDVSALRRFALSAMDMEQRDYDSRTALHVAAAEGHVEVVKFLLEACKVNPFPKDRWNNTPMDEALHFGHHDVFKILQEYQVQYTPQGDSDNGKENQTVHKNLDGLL

SMILES	Potency
C/C(=N\NP(=S)(c1ccccc1)c1ccccc1)c1ccc(O)cc1O	inconclusive: 14.1 µM [inhibitor, single point]
COC(=O)C(O)(c1ccc(N(C)C(=O)c2cccs2)cc1)C(F)(F)F (stereo unspecified)	inconclusive: 35.5 µM [inhibitor, single point]
C/C1=C\[C@@H](C)C/C=C/[C@H]2[C@@H]3O[C@]3(C)[C@@H](C)[C@H]3[C@H](Cc4c[nH]c5ccccc45)NC(=O)[C@]32C(=O)/C=C/C(=O)[C@@H]1O	inactive
CCC(C)n1c(O)c(/C=N/Nc2nc3c(c(=O)n(C)c(=O)n3C)n2C)c(=O)[nH]c1=S (stereo unspecified)	active: 10 µM
Cc1ccc2c(CN3CC=C(c4ccccc4)CC3)cc(=O)oc2c1C	inconclusive: 20 µM [inhibitor, single point]
O=[N+]([O-])/C=C/c1c(Cl)cccc1Cl	active: 7.94 µM
CS(=O)(=O)c1ccc(C(=O)C2C(=O)CCCC2=O)c([N+](=O)[O-])c1	inconclusive: 70.8 µM [inhibitor, single point]
CN(N)N=Nc1nc2c([nH]1)c(=O)n(C)c(=O)n2C	inconclusive: 35.5 µM [inhibitor, single point]
Cc1cc(/C=C2\C(=O)NC(=O)N(c3cccc(F)c3)C2=O)c(C)n1-c1ccc(C(=O)O)c(Cl)c1	inconclusive: 25.1 µM [inhibitor, single point]
COc1cc(O)c(C(=O)O)c(-c2cc(O)c(O)cc2C)c1	inconclusive: 35.5 µM [inhibitor, single point]
CC[C@H]1C[C@H]2[C@@H]3CCC4=CC(=O)CC[C@@H]4[C@H]3CC[C@]2(C)[C@H]1O	inactive
Oc1cc[c]([Hg][Cl])cc1	inconclusive: 7.08 µM [inhibitor, full curve, poor fit] and inconclusive: 6.31 µM [inhibitor, full curve, poor fit]
O=P1(N(CCCl)CCCl)NC(OO)CCO1 (stereo unspecified)	inactive
O=C1CC(c2ccccc2)CC(O)=C1C=NCCN1CCN(C(=O)Cc2ccccc2)CC1 (stereo unspecified)	inactive
Cc1cc(=O)oc2c1c(C)nn2-c1nn[nH]n1	inconclusive: 35.5 µM [inhibitor, single point]
O=C1C(I)=CC(=C(c2cc(I)c(O)c(I)c2)c2ccccc2C(=O)O)C=C1I	inconclusive: 20 µM [inhibitor, partial curve, poor fit]
CC(=O)/C=C/c1ccccc1	inactive
CN1C(=O)C(=Cc2ccccc2OCc2ccccc2Cl)C(=O)N(C)C1=O	inconclusive: 3.55 µM [inhibitor, single point]
CCOc1ccccc1CN(CCc1ccc2c(c1)OCO2)Cc1ccc(CC)cc1	inactive
Cc1nn(CCC#N)c2c1P(=S)(N1CCCC1)OC(c1ccc(F)cc1)=N2 (stereo unspecified)	inconclusive: 35.5 µM [inhibitor, single point]
NC(=O)c1ccc(N=Cc2c(O)n(Cc3ccco3)c(=O)[nH]c2=O)cc1	inconclusive: 12.6 µM [inhibitor, partial curve, poor fit]
CC1[C@H]2Cc3ccc(O)cc3[C@]1(C)CCN2CCc1ccccc1 (stereo partly specified)	inactive

SMILES	Potency
COC(=O)C(C#N)C(c1cccnc1)c1c(C)[nH][nH]c1=O (stereo unspecified)	inconclusive: 35.5 µM [inhibitor, single point]
COc1ccc(N2C(=O)/C(=C/c3ccc(C)o3)C(=O)NC2=S)c(OC)c1	inconclusive: 17.8 µM [inhibitor, single point]
Cc1ccc(Cn2cccc(C(=O)Nc3nnc(C)s3)c2=O)cc1	inconclusive: 6.31 µM [inhibitor, single point]
CCc1ccccc1N1C(=O)/C(=C/c2ccc(N3CCN(C)CC3)o2)C(=O)NC1=S	inconclusive: 12.6 µM [inhibitor, single point]
COc1ccc(CC2c3cc(OC)c(OC)cc3CCN2C)cc1OC (stereo unspecified)	inconclusive: 35.5 µM [inhibitor, single point]
CCN(CC)C(=O)c1ccc(NC(=O)Cn2nc(-c3ccc(C)cc3)c3ccccc3c2=O)cc1	inactive
CN(C)C1C(=O)C(C(N)=O)=C(O)C2(O)C(=O)C3=C(O)c4c(O)cccc4C(C)(O)C3CC12 (stereo unspecified)	inconclusive: 7.94 µM [inhibitor, partial curve, poor fit]
COc1ccc(/C=C2/C(=O)NC(=S)N(C3CC3)C2=O)cc1CN1C(=O)c2ccccc2C1=O	inconclusive: 10 µM [inhibitor, partial curve]
O=C1NC(=O)N(c2ccccc2)C(=O)/C1=C\C=C\c1ccccc1	inconclusive: 2.51 µM [inhibitor, full curve, poor fit]
COP(=S)(OC)SCn1nnc2ccccc2c1=O	inactive
CCOC(=O)[C@]12Cc3cc(Cl)ccc3[C@H]1N(C)C(=O)c1ccccc12	inconclusive: 35.5 µM [inhibitor, partial curve, poor fit]
Cc1nc2ccccc2c(=O)n1-c1ccc(F)cc1	inactive
CC1=C[C@@H]2c3cccc4[nH]cc(c34)C[C@H]2N(C)C1	inconclusive: 17.8 µM [inhibitor, partial curve, poor fit]
CN(C)CCCNCC(=O)Nc1ccc(Cl)cc1C(=O)c1ccccc1	inactive
CC(C)n1c(O)c(C2c3cc(Cl)ccc3Oc3[nH]c(=O)n(C(C)C)c(=O)c32)c(=O)[nH]c1=O (stereo unspecified)	inconclusive: 11.2 µM [inhibitor, partial curve]
O=[N+]([O-])c1ccc2nc(N3CCNCC3)ccc2c1	inactive
Cc1c(N=Nc2c(O)n(-c3ccc(Br)cc3)c(=O)[nH]c2=O)c(=O)n(-c2ccccc2)n1C	inactive
CC1=C(O)C(=O)C=C2C1=CC=C1C2(C)CCC2(C)C3CC(C)(C(=O)O)CCC3(C)CCC12C (stereo unspecified)	inconclusive: 5.01 µM [inhibitor, partial curve]
N#Cc1ccccc1Cn1cc(C(=O)c2ccccc2F)c2ccccc21	inactive
CCOP(=O)(C#Cc1ccccc1)C(O)c1ccc(Br)cc1 (stereo unspecified)	inactive
O=c1[nH]c(=O)n(Cc2ccco2)c(O)c1C=NCCN1CCOCC1	inconclusive: 11.2 µM [inhibitor, partial curve, poor fit]
CC1Oc2cc3c(-c4c(O)cc(O)c5c(O)c6c(cc45)OC(C)C(C)C6=O)c(O)cc(O)c3c(O)c2C(=O)C1C (stereo unspecified)	active: 7.94 µM

SMILES	Potency
COc1cc(N2CCOCC2)ccc1/C=C1\C(=O)NC(=O)N(Cc2cccs2)C1=O	inactive
COc1ccccc1C=C1C(=O)NC(=S)NC1=O	inactive
C=CCN1C(=O)NC(=O)C(Cc2ccc(OC)c(OC)c2)C1=O (stereo unspecified)	inconclusive: 17.8 µM [inhibitor, single point]
O=C(N/N=C/c1c(O)n(C2CC2)c(=S)[nH]c1=O)c1ccccc1O	inconclusive: 35.5 µM [inhibitor, single point]
CCN(CCCNS(=O)(=O)c1ccc2c(c1)oc(=O)n2C)c1cccc(C)c1	inconclusive: 35.5 µM [inhibitor, single point]
C=CCn1c(O)c(C(CC)=NCC2CCCO2)c(=O)[nH]c1=O (stereo unspecified)	inactive
Cc1ccc2nsnc2c1NS(=O)(=O)c1c(C)ccc2nsnc12	inconclusive: 3.98 µM [inhibitor, single point]
O=c1[nH]c(CN2CC=C(c3ccccc3)CC2)nc2cc(C(F)(F)F)ccc12	inconclusive: 15.8 µM [inhibitor, single point]
COc1ccc(-n2nnnc2C(c2cc3ccccc3o2)N2CCC(n3c(=O)[nH]c4ccccc43)CC2)cc1 (stereo unspecified)	inactive
COc1ccc(O)c(CN2CCCC(C(=O)c3ccccc3SC)C2)c1 (stereo unspecified)	inconclusive: 10 µM [inhibitor, partial curve, poor fit]
COc1ccc(-n2c(O)c(/C(C)=N/Nc3ccccc3)c(=O)[nH]c2=O)cc1	inconclusive: 12.6 µM [inhibitor, single point]
C[C@]12CCC(=O)C=C1C=CC1C2CC[C@@]2(C)C1CC[C@@H]2O (stereo partly specified)	inconclusive: 35.5 µM [inhibitor, single point]
Cc1ccc(/C=C2\C(=O)NC(=S)N(c3ccc(F)cc3)C2=O)o1	inconclusive: 20 µM [inhibitor, single point]
C/C(CC(=O)N1CCN(C=O)CC1)=N\NC(=O)c1cccc([N+](=O)[O-])c1	inconclusive: 11.2 µM [inhibitor, partial curve]
COc1cc(/C=C/[N+](=O)[O-])ccc1O	inactive
CCOc1cc(C=C2C(=O)NC(=O)NC2=O)ccc1OS(=O)(=O)c1ccccc1	inactive
CCOc1cccc(N2C(=O)/C(=C/c3ccco3)C(=O)NC2=S)c1	inconclusive: 17.8 µM [inhibitor, partial curve]
O=c1[nH]c(=O)n(-c2cccc3ccccc23)c(O)c1/C=N/N1CCCCCC1	inconclusive: 22.4 µM [inhibitor, single point]
CCOC(=O)[C@]12Cc3ccccc3[C@H]1N(Cc1ccccc1)C(=O)c1cc(F)c(F)cc12	inconclusive: 10 µM [inhibitor, partial curve, poor fit]
C=C/C=C/CC1=C(C)[C@@H](OC(=O)[C@@H]2[C@@H](/C=C(\C)C(=O)OC)C2(C)C)CC1=O (tested in a mixture with another compound)	inactive
CN1CCN(c2ccc(/C=C3\C(=O)NC(=S)N(c4cccc(Br)c4)C3=O)o2)CC1	active: 11.2 µM
COC([CH2][Hg])CNC(=O)c1ccccc1OCC(=O)O (stereo unspecified)	inconclusive: 15.8 µM [inhibitor, full curve, poor fit]
